{
  "source": "PubChem BioAssay AID686979",
  "about": "(National Center for Advancing Translational Sciences (NCATS), 2013)",
  "note": "Several values for one entry are separate records, joined by “and”; a condition that tells them apart may be missing. Equal values may be shown once. Hit rate of the full screen: of about 420,000 compounds, about 50,000 (12%) were called active. The inconclusive results got no clear call from the source; some entries with a clear call stand among them for comparison. The call rests on the fitted dose curve; in most records, active means well fitted inhibition curve with a large enough effect; inconclusive means small, poorly fitted or top-dose-only effect; inactive means flat fitted curve, though single readings scatter. Potencies beside an inconclusive call are fits to weak or partial responses and may not hold up. A structure can be active in one record and inactive in another. On the % scale 0 is the no-effect control and ±100 the full control effect; potency means the concentration at half of the fitted maximal effect; tags describe the fitted curve by direction and shape.",
  "data": [
    {"assay": "qHTS for Inhibitors of human tyrosyl-DNA phosphodiesterase 1 (TDP1): qHTS in cells in presence of CPT; further: nearly all actives have a fitted effect of over 55% in size", "conditions": "chicken DT40 Tdp1-/-;hTDP1 cells + 20 nM CPT, ATP luminescence, 48 h; activity change, negative = growth inhibition: at 46.2 µM (top of the series) unless noted", "method_in_brief": "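Chicken DT40 Tdp1-/- cells complemented with human TDP1, 400 cells/well, exposed to compounds plus 20 nM camptothecin for at least 48 h at 37 C; viability read as ATP content by CellTiter-Glo luminescence.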", "values": [
      {"smiles": "CCN(CC)P(c1n(C)cc[n+]1C)N(CC)CC", "Potency": "inconclusive: 8.2 µM [inhibitor, partial curve]"},
      {"smiles": "CN(c1ccccc1)S(=O)(=O)c1cccc(C(=O)N2CCN(c3ccccn3)CC2)c1", "Potency": "active: 18.4 µM"},
      {"smiles": "CC1(C)CC(=O)C=C(NCCN2CCN(C(=O)Cc3ccc(Cl)cc3)CC2)C1", "Potency": "inactive"},
      {"smiles": "CCOC(=O)CC(SP(=S)(OC)OC)C(=O)OCC", "note": "(stereo not drawn)", "Potency": "inactive and active: 21.7 nM"},
      {"smiles": "COC(=O)C1=C(c2ccccc2OCc2ccccc2)C[C@@H]2CC[C@H]1N2C(=O)NCc1ccc(C(F)(F)F)cc1", "Potency": "inconclusive: 23.1 µM [inhibitor, single point]"},
      {"smiles": "CCC(CC)C1C(C#N)=C(N)Oc2c1c(=O)oc1ccccc21", "note": "(stereo not drawn)", "Potency": "inconclusive: 29.1 µM [inhibitor, single point]"},
      {"smiles": "Clc1cccc(N2Cc3ccccc3-n3nncc3C2)c1", "Potency": "inconclusive: 18.4 µM [inhibitor, single point]"},
      {"smiles": "OC(c1ccccc1)(c1ccc(Cl)cc1)C1CN2CCC1CC2", "note": "(stereo not drawn)", "Potency": "active: 16.4 µM"},
      {"smiles": "CCOC(=O)C1(CCc2ccccc2)CCN(Cc2ccc3c(c2)OCCO3)CC1", "Potency": "inconclusive: 29.1 µM [inhibitor, single point]"},
      {"smiles": "Cc1ccc(/C=C2/C(=O)NC(=O)N(CC3CCCO3)C2=O)s1", "note": "(stereo not drawn)", "Potency": "inactive"},
      {"smiles": "O=C(CNC(=O)c1cccs1)OCC(=O)c1ccc([N+](=O)[O-])cc1", "Potency": "active: 16.4 µM"},
      {"smiles": "CN1CC(C(=O)c2ccc(Cl)cc2)C(c2ccc(N(C)C)cc2)C1", "note": "(stereo not drawn)", "Potency": "active: 20.6 µM"},
      {"smiles": "CC1(C)OC[C@@H](COC(=O)CCc2ccc(OC[C@@H](O)CNCCNC(=O)N3CCOCC3)cc2)O1", "Potency": "inconclusive: 2.66 µM [inhibitor, single point]"},
      {"smiles": "NC[C@H](CC(=O)O)c1ccc(Cl)cc1", "Potency": "inconclusive: 33.5 µM [inhibitor, single point]"},
      {"smiles": "COc1ccc(C(=O)c2nc3ccccc3n2C(C)C)cc1OC", "Potency": "inconclusive: 8.2 µM [inhibitor, partial curve, poor fit]"},
      {"smiles": "O=C(Nc1ccccc1)c1cc([N+](=O)[O-])ccc1N1CCNCC1", "Potency": "inactive"},
      {"smiles": "CC1N(O)C2CCCCCC2N1O", "note": "(stereo not drawn)", "Potency": "inactive"},
      {"smiles": "CN1CC[C@]23c4c5ccc(O)c4O[C@H]2[C@@H](O)C=C[C@H]3[C@H]1C5", "Potency": "inactive"},
      {"smiles": "COCCN1C(=NCCCOC(C)C)N[C@@H](c2ccccc2)C(C(=O)OC)=C1C", "Potency": "inconclusive: 18.4 µM [inhibitor, single point]"},
      {"smiles": "COc1ccc(C(=O)C2CN(C)CC2C(=O)c2ccc(OC)cc2)cc1", "note": "(stereo not drawn)", "Potency": "inconclusive: 29.1 µM [inhibitor, single point]"},
      {"smiles": "COC(=O)C1=C(c2ccccc2OCc2ccccc2)C[C@@H]2CC[C@H]1N2C(=O)NCc1cccc(F)c1", "Potency": "inconclusive: 29.1 µM [inhibitor, single point]"},
      {"smiles": "CC(C)c1ccc(CNC(=O)c2ccc(N3CCCC3)c(NC(=O)NCc3ccccc3)c2)cc1", "Potency": "active: 14.6 µM"},
      {"smiles": "COC(=O)C1=C(c2ccccc2OCc2ccccc2)C[C@@H]2CC[C@H]1N2C(=O)NCc1ccc(F)cc1", "Potency": "inconclusive: 29.1 µM [inhibitor, single point]"},
      {"smiles": "CC(=O)c1ccc(-c2ccc(Cn3c(C)nc4cc(N)c(C)nc43)cc2)cc1", "Potency": "inconclusive: 18.4 µM [inhibitor, single point]"},
      {"smiles": "NC(Cc1ccccc1)c1csc(Nc2ccccn2)n1", "note": "(stereo not drawn)", "Potency": "inconclusive: 29.1 µM [inhibitor, single point]"},
      {"smiles": "COc1ccc(N2CCN(CCc3ccncc3)CC2)cc1", "Potency": "inactive"},
      {"smiles": "O=C(NCC1=C(c2ccc3ccccc3c2)C[C@@H]2CC[C@H]1N2Cc1ccco1)c1cccnc1", "Potency": "inactive"},
      {"smiles": "CC(C)N1C(=O)CCC1C(=O)N1CCC2(CC1)OCCO2", "note": "(stereo not drawn)", "Potency": "inactive"},
      {"smiles": "N#CC1c2ccccc2C=CN1C(=O)c1ccc(N(CCCl)CCCl)cc1", "note": "(stereo not drawn)", "Potency": "active: 23.1 µM"},
      {"smiles": "CC(=O)[C@@]1(O)CC[C@H]2[C@@H]3CCC4=CC(=O)CC[C@]4(C)[C@H]3CC[C@@]21C", "Potency": "inconclusive: 29.1 µM [inhibitor, single point]"},
      {"smiles": "COc1ccc(CN2CCCCC2c2cccnc2)cc1C", "note": "(stereo not drawn)", "Potency": "inconclusive: 23.1 µM [inhibitor, single point]"},
      {"smiles": "Cc1sc2ncn(CC(=O)NCC(=O)N3CCC4(CC3)OCCO4)c(=O)c2c1C", "Potency": "inactive"},
      {"smiles": "CC(C)C[C@@H](CN(N=O)[C@@H](Cc1ccccc1)CN(C)N=O)N(CCc1ccccc1)N=O", "Potency": "inconclusive: 23.1 µM [inhibitor, partial curve, poor fit]"},
      {"smiles": "CS(=O)(=O)N1CCN(C(=N)N[N+](=O)[O-])CC1", "Potency": "inconclusive: 25.9 µM [inhibitor, single point]"},
      {"smiles": "CN(C(=O)Cc1ccc(Cl)c(Cl)c1)C(CN1CCCC1)c1cccc(N=C=S)c1", "note": "(stereo not drawn)", "Potency": "active: 5.17 µM"},
      {"smiles": "CN1CC(C(=O)c2cccs2)C(c2ccc(Cl)cc2)C1", "note": "(stereo not drawn)", "Potency": "inconclusive: 29.1 µM [inhibitor, single point]"},
      {"smiles": "C=CCN1C(=O)/C(=C/c2ccc(Br)s2)C(=O)NC1=S", "Potency": "inconclusive: 29.1 µM [inhibitor, single point]"},
      {"smiles": "COc1ccc(C(=O)CC2C(=O)N(C)C(=O)N(C)C2=O)cc1", "Potency": "inconclusive: 29.1 µM [inhibitor, single point]"},
      {"smiles": "CCCN(CCC)CCc1c[nH]c2ccccc12", "Potency": "active: 19.1 µM"},
      {"smiles": "O=Nc1c(O)c2ccccc2c2ccccc12", "Potency": "active: 1.84 µM"},
      {"smiles": "Cc1cc(/C=C2/C(=O)NC(=O)N(Cc3ccco3)C2=O)c(C)n1-c1ccccc1O", "Potency": "inactive"},
      {"smiles": "Cc1sc2c(c1C)C(c1ccc(C(C)(C)C)cc1)=NCC(=O)N2CC(=O)Nc1nccs1", "Potency": "inconclusive: 29.1 µM [inhibitor, single point]"},
      {"smiles": "COC(=O)C1=C(c2cccc(OCc3ccccc3)c2)C[C@@H]2CC[C@H]1N2C(=O)NCCN1CCOCC1", "Potency": "active: 16.4 µM"},
      {"smiles": "COc1ccc(CC(N)c2csc(NC(=O)Nc3ccccc3Oc3ccccc3)n2)cc1", "note": "(stereo not drawn)", "Potency": "inconclusive: 29.1 µM [inhibitor, single point]"},
      {"smiles": "COc1cc(/C=C2\\C[C@H]3[C@@H]4CC=C5C[C@@H](N6CCCC6)CC[C@]5(C)[C@H]4CC[C@]3(C)[C@H]2O)cc(OC)c1OC", "Potency": "active: 14.6 µM"},
      {"smiles": "Cn1cc(C=C(C#N)C#N)c2ccccc21", "Potency": "inactive"},
      {"smiles": "COc1ccc(-n2c(=S)[nH]c3c(sc(=S)n3-c3ccccc3)c2=O)c(OC)c1", "Potency": "active: 20.6 µM"},
      {"smiles": "ClCCN(CCCl)c1ccc(C=Cc2ccncn2)cc1", "Potency": "active: 6.51 µM"},
      {"smiles": "CN(C=O)CP(=O)(O)CN(C)C=O", "Potency": "inactive"},
      {"smiles": "Cc1nc2nc(SCC(=O)N3CCC4(CC3)OCCO4)nn2c(C)c1Cc1ccccc1", "Potency": "inactive"},
      {"smiles": "CCOc1ccc(CC2(CCc3ccncc3)C(=O)NC(=O)NC2=O)cc1", "Potency": "inactive"},
      {"smiles": "CCCC(c1nnnn1Cc1cccs1)N1CCN(c2nc3ccccc3s2)CC1", "note": "(stereo not drawn)", "Potency": "inconclusive: 29.1 µM [inhibitor, single point]"},
      {"smiles": "Cc1ccccc1NC(=NCCCN1CC1)Nc1ccccc1C", "Potency": "active: 2.06 µM"},
      {"smiles": "NN=C1C(Cl)=C(Cl)C(Cl)=C1Cl", "Potency": "inconclusive: 29.1 µM [inhibitor, single point]"},
      {"smiles": "COc1ccc(NS(=O)(=O)c2cc(NC(=O)COc3ccccc3)ccc2N2CCOCC2)cc1", "Potency": "inconclusive: 23.1 µM [inhibitor, partial curve]"},
      {"smiles": "CC(C)c1cccc(O)c(=O)c1", "Potency": "inactive and active: 11.6 µM and active: 6.51 µM"},
      {"smiles": "COc1ccc(CC2c3cc(OC)c(OC)cc3CCN2C)cc1O", "note": "(stereo not drawn)", "Potency": "inactive"},
      {"smiles": "CCC(=O)N1CC(=O)Nc2ccc(C)cc2C1c1ccc(F)cc1", "note": "(stereo not drawn)", "Potency": "active: 3.66 µM"},
      {"smiles": "CC(=O)c1ccc(N2CCN(c3ccc4cc(S(=O)(=O)N5CCCCC5)ccc4n3)CC2)cc1", "Potency": "inconclusive: 5.17 µM [inhibitor, full curve]"},
      {"smiles": "O=c1cccc2n1CC1CC2CN(c2ncnc3c2cnn3-c2ccc(Cl)cc2)C1", "note": "(stereo not drawn)", "Potency": "inactive"},
      {"smiles": "Cc1ccc(N=C(/N=C(\\N)N[N+](=O)[O-])Nc2ccc(C)cc2)cc1", "Potency": "inconclusive: 25.9 µM [inhibitor, partial curve, poor fit]"},
      {"smiles": "Oc1ccc2c3c1O[C@H]1c4[nH]c5ccccc5c4C[C@@]4(O)[C@@H](C2)N(CC2CC2)CC[C@]314", "Potency": "inactive"},
      {"smiles": "CCOc1ccc(-c2nnc3ccc(SC)nn23)cc1", "Potency": "inconclusive: 25.9 µM [inhibitor, partial curve]"},
      {"smiles": "O=Cc1cn(Cc2c(F)cccc2Cl)c2ccccc12", "Potency": "inconclusive: 23.1 µM [inhibitor, single point]"},
      {"smiles": "Cc1ccc(NC(=O)N2CCN(c3cc(-c4noc(C)n4)ccc3C)CC2)c(F)c1", "Potency": "inconclusive: 29.1 µM [inhibitor, single point]"},
      {"smiles": "CCc1cccc(NC(=O)c2ccc(NC(=O)N3CCSc4ncccc43)cc2)c1", "Potency": "active: 20.6 µM"},
      {"smiles": "CCCC[N+]12C3CC(C(CC)[C@H]1O)[C@@H]1C(O)C4(C[C@@H]12)c1ccccc1N(C)C34", "note": "(stereo partly drawn)", "activity change, negative = growth inhibition": "inconclusive: -33.6% [inhibitor] [at 9.04 µM]"},
      {"smiles": "O=C(COc1ccccc1Cl)Nc1ccc2nc(SCC(=O)N3CCCC3)sc2c1", "Potency": "active: 20.6 µM"},
      {"smiles": "CN(C)CC(C(=O)Cc1ccccc1)c1ccccc1", "note": "(stereo not drawn)", "Potency": "active: 0.92 µM"},
      {"smiles": "Cc1cc([P+](=O)O)c(C)n1-c1ccc(Br)cc1", "Potency": "inactive"},
      {"smiles": "S=C(NCCc1ccccc1)N1Cc2cc(N3CCCCC3)ccc2-n2nncc2C1", "Potency": "inconclusive: 29.1 µM [inhibitor, single point]"},
      {"smiles": "COc1ccc(C2C=C(c3ccccc3)Nc3nc(NC(=O)/C=C/c4ccccc4Cl)nn32)cc1", "note": "(stereo not drawn)", "Potency": "active: 5.17 µM"},
      {"smiles": "COC(=NC1CCCC1)C(O)c1c[nH]c2ccccc12", "note": "(stereo not drawn)", "Potency": "inconclusive: 23.1 µM [inhibitor, partial curve]"}
    ]}
  ]
}
